Data as given in publication PMC12214610.
A number of entries come with more than one value. They are shown here; other results are not. The source may hold further records. Some protein pairs were linked at several places, one record each.

Legend:
Settings in all cases: virion
DDX1 = DDX1 (UniProt Q92499)
RTRAF = RTRAF (UniProt Q9Y224)
CHMP2B = CHMP2B (UniProt Q9UQN3)
VTA1 = VTA1 (UniProt Q9NP79)
CCT8 = CCT8 (UniProt P50990)
PDCL3 = PDCL3 (UniProt Q9H2J4)
ERP44 = ERP44 (UniProt Q9BS26)
ACLY = ACLY (UniProt P53396)
DCTN2 = DCTN2 (UniProt Q13561)
TLN1 = TLN1 (UniProt Q9Y490)
CCT3 = CCT3 (UniProt P49368)
EEF1D = EEF1D (UniProt P29692)
CCT2 = CCT2 (UniProt P78371)
UniProt P78371, sequence (P78371 whole entry): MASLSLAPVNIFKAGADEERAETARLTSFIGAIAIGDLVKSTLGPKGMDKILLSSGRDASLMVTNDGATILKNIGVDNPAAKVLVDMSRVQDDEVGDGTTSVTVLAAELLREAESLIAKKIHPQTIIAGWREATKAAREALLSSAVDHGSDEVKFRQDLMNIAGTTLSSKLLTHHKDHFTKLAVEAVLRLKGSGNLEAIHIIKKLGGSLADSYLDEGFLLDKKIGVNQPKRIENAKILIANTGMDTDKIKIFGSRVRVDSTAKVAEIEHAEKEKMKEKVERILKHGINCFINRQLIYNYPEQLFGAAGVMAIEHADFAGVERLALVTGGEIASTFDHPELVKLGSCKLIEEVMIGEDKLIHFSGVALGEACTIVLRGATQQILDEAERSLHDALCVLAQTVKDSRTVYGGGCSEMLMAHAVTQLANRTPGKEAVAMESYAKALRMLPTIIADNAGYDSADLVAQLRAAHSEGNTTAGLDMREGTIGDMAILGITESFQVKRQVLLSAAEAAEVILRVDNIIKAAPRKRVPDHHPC

CCT4 = CCT4 (UniProt P50991)
AP2M1 = AP2M1 (UniProt Q96CW1)
CCT7 = CCT7 (UniProt Q99832)
CLTC = CLTC (UniProt Q00610)
UniProt Q00610, sequence (Q00610 whole entry): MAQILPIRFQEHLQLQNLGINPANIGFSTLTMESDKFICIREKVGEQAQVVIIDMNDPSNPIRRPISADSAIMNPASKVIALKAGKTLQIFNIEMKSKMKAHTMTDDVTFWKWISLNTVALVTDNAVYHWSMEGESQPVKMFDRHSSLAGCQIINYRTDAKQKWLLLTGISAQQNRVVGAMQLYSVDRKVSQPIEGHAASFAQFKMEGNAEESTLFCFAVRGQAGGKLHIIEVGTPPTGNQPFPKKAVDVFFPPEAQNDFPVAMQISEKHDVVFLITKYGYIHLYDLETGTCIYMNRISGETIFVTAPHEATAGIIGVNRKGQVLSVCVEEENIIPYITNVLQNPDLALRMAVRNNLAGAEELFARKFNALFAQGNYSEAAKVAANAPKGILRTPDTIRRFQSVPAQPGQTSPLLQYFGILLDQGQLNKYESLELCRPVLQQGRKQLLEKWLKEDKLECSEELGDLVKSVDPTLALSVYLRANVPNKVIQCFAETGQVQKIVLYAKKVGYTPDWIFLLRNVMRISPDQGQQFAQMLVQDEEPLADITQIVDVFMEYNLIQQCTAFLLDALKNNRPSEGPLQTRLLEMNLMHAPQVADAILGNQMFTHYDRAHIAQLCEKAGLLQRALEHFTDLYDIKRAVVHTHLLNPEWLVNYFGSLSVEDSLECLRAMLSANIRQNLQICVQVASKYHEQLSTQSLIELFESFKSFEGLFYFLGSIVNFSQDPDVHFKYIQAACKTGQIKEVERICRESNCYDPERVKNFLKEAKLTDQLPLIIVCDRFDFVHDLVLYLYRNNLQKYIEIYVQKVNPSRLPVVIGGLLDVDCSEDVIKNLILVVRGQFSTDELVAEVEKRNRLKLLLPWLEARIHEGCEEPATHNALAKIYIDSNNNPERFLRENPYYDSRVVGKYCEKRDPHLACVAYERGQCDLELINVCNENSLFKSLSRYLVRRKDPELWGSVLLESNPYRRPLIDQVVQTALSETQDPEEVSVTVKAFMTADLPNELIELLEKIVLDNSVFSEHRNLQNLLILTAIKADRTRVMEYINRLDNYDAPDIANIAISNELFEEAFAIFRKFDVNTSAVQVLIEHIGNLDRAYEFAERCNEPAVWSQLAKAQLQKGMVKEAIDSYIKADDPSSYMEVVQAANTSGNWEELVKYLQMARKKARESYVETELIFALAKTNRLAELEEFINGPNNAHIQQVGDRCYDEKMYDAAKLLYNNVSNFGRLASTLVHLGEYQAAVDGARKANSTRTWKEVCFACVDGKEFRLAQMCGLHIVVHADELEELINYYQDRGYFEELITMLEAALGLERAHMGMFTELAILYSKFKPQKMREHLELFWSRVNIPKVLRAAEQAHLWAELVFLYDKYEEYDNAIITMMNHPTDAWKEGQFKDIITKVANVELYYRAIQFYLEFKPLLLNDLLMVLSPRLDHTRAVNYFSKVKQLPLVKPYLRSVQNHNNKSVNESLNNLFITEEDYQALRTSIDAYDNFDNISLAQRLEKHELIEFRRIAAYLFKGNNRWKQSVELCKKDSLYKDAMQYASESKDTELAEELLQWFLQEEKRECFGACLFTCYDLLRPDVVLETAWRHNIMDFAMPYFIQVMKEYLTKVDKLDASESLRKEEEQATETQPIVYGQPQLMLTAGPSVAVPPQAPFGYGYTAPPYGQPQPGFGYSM

AP1M1 = AP1M1 (UniProt Q9BXS5)
HYOU1 = HYOU1 (UniProt Q9Y4L1)
PDIA6 = PDIA6 (UniProt Q15084)
LDHB = LDHB (UniProt P07195)
LGALS1 = LGALS1 (UniProt P09382)
LPP = LPP (UniProt Q93052)
LUZP1 = LUZP1 (UniProt Q86V48)
MYH10 = MYH10 (UniProt P35580)
NDRG1 = NDRG1 (UniProt Q92597)
PDIA3 = PDIA3 (UniProt P30101)
RAN = RAN (UniProt P62826)
RTCB = RTCB (UniProt Q9Y3I0)
SEPTIN11 = SEPTIN11 (UniProt Q9NVA2)
SPTAN1 = SPTAN1 (UniProt Q13813)
SRP9 = SRP9 (UniProt P49458)
UniProt P49458, sequence (P49458 whole entry): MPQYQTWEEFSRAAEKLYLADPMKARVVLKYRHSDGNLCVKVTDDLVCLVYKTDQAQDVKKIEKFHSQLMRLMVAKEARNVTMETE

UCKL1 = UCKL1 (UniProt Q9NWZ5)
VBP1 = VBP1 (UniProt P61758)
VPS16 = VPS16 (UniProt Q9H269)
VPS18 = VPS18 (UniProt Q9P253)
VTI1A = VTI1A (UniProt Q96AJ9)
YKT6 = YKT6 (UniProt O15498)
YWHAE = YWHAE (UniProt P62258)
YWHAZ = YWHAZ (UniProt P63104)

YWHAE, sequence (P62258 whole entry): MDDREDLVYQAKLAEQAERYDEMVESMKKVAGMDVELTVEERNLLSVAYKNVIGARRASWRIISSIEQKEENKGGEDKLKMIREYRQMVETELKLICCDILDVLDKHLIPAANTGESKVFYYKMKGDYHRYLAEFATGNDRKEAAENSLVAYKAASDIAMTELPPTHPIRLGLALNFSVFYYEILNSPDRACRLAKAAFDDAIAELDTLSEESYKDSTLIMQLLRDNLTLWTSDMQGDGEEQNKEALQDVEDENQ
YWHAE, P62258, sequence (P62258 whole entry): as above
FAM98A, sequence (Q8NCA5 whole entry): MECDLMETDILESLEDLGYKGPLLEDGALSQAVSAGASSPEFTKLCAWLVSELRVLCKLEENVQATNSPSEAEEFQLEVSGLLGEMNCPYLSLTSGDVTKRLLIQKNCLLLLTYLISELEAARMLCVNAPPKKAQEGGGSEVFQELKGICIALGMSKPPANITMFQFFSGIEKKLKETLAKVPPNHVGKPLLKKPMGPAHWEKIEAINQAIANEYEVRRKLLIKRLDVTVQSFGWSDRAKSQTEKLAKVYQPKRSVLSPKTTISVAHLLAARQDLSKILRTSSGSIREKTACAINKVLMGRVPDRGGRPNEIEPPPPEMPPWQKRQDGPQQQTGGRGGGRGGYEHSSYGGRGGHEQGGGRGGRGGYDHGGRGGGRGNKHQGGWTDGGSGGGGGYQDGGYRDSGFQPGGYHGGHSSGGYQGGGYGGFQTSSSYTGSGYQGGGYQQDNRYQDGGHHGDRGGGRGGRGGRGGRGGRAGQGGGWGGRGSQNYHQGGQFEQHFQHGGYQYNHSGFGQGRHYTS
CCT6A, sequence (P40227 whole entry): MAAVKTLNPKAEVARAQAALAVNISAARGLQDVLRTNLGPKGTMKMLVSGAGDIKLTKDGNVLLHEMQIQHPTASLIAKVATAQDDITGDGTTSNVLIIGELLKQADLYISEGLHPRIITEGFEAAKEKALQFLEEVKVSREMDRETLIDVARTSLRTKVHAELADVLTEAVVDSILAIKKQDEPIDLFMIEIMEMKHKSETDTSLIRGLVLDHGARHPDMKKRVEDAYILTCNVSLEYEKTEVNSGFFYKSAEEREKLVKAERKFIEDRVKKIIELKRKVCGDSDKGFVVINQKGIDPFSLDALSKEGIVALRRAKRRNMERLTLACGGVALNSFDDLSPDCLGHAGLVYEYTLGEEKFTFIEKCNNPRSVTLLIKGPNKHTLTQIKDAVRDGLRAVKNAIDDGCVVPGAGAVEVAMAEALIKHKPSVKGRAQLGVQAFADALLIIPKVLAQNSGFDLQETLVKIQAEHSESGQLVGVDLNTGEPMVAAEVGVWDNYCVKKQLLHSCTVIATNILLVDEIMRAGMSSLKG
HSPA5, sequence (P11021 whole entry): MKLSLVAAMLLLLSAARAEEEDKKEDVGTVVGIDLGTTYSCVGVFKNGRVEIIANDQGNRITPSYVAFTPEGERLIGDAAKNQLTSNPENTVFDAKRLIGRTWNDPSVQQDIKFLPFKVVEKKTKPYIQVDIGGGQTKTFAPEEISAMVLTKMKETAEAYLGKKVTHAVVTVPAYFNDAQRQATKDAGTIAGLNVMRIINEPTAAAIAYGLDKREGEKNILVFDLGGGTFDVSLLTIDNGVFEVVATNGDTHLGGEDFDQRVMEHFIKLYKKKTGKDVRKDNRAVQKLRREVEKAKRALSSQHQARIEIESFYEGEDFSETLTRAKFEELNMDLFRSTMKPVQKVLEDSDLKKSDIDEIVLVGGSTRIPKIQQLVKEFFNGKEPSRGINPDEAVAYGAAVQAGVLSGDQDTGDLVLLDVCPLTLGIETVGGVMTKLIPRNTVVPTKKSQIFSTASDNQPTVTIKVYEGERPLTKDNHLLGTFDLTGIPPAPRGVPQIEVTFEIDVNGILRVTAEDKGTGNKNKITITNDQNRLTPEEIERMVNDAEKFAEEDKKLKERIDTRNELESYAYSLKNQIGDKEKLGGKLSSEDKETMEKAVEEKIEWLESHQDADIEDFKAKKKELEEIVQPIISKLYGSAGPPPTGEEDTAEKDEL
DDX1, sequence (Q92499 whole entry): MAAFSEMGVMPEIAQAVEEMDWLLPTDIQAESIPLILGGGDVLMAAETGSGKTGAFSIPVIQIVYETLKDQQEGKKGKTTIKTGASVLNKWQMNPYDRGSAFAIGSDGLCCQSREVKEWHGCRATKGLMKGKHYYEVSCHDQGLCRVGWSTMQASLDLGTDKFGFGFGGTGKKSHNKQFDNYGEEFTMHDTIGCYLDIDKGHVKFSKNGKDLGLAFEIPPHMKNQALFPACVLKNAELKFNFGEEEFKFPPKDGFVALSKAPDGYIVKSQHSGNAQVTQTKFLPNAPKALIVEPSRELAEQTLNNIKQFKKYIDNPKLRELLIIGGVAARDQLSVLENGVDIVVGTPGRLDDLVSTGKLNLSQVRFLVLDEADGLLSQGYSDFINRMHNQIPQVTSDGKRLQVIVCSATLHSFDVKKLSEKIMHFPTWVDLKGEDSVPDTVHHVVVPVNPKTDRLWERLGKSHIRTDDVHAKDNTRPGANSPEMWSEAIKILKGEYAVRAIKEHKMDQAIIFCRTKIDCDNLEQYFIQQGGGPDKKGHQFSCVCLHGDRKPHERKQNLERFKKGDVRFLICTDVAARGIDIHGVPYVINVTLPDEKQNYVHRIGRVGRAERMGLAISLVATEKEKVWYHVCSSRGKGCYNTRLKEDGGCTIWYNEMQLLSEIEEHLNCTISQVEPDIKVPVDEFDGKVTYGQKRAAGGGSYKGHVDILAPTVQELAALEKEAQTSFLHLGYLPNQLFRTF

Question: What does the source list for FAM98A, Q8NCA5?
Answer: cross-linked residues (DDX1): K240 - K687 and K240 - K702 and K248 - K702 and K260 - K693; cross-linked residues (RTRAF): K132 - K108 and K133 - K115 and K189 - K176 and K245 - K234 and K248 - K234 and K253 - K218 and K260 - K108 and K277 - K171 and K277 - K176

Question: Which cross-linked residues (CHMP2B) does the source give for VPS4B, O75351 here?
Answer: K53 - K180 and K53 - K195

Question: What about the cross-linked residues (VTA1) of the same substance?
Answer: K61 - K29 and K422 - K274

Question: How did the cross-linked residues (CCT8) turn out when CCT3, P49368 was run?
Answer: K21 - K16 and K21 - K20 and K21 - K37 and K31 - K20

Question: What about the cross-linked residues (PDCL3) of the same substance?
Answer: K203 - K214 and K249 - K90 and K381 - K214 and K529 - K148

Question: How did the cross-linked residues (ERP44) turn out when PRDX4, Q13162 was run?
Answer: K263 - K106 and K269 - K303

Question: Which results are given for S100A6, P06703?
Answer: cross-linked residues (ACLY): K47 - K780 and K47 - K836 and K47 - K978; cross-linked residues (DCTN2): K47 - K188 and K47 - K297 and K47 - K308; cross-linked residues (TLN1): K26 - K1654 and K47 - K1544

Question: CCT6A, P40227 was tested. Which cross-linked residues (CCT3) did it give?
Answer: K10 - K21 and K10 - K31 and K10 - K78 and K530 - K78

Question: And the cross-linked residues (CCT8)?
Answer: K10 - K20 and K199 - K326 and K199 - K400 and K251 - K326 and K307 - K326 and K377 - K400

Question: With EEF1G, P26641 as the substance, how does the cross-linked residues (EEF1D) read?
Answer: K52 - K117 and K219 - K107 and K220 - K17 and K220 - K107 and K227 - K17 and K241 - K17

Question: Which cross-linked residues (CCT3) does the source give for PDCD5, O14737 here?
Answer: K97 - K529 and K105 - K529

Question: Which results are given for CCT5, P48643?
Answer: cross-linked residues (CCT2): K176 - K135 and K392 - K82 and K496 - K135; cross-linked residues (CCT4): K42 - K21 and K42 - K126 and K214 - K489

Question: AP2B1, P63010 was tested. Which cross-linked residues (AP2M1) did it give?
Answer: K282 - K219 and K282 - K224 and K282 - K281 and K322 - K281

Question: Which results are given for TCP1, P17987?
Answer: cross-linked residues (CCT3): K73 - K528 and K73 - K529 and K199 - K234 and K199 - K317; cross-linked residues (CCT4): K126 - K21 and K126 - K55 and K126 - K489 and K532 - K65 and K541 - K21; cross-linked residues (CCT7): K109 - K109 and K111 - K440

Question: For CLTA, P09496, which cross-linked residues (CLTC) is on record?
Answer: K112 - K1264 and K156 - K1264 and K158 - K1501 and K229 - K1612 and K242 - K1516 and K242 - K1535

Question: Which cross-linked residues (AP1M1) does the source give for AP1S1, P61966 here?
Answer: K26 - K370 and K26 - K373

Question: Which results are given for HSPA5, P11021?
Answer: cross-linked residues (HYOU1): K370 - K883 and K376 - K883; cross-linked residues (PDIA6): K287 - K150 and K523 - K150 and K523 - K159 and K523 - K245 and K579 - K150

Question: With LDHA, P00338 as the substance, how does the cross-linked residues (LDHB) read?
Answer: K14 - K156 and K224 - K7

Question: How did the cross-linked residues (LGALS1) turn out when PFN1, P07737 was run?
Answer: K91 - K29 and K105 - K29

Question: Which cross-linked residues (LPP) does the source give for VCL, P18206 here?
Answer: K768 - K108 and K784 - K108

Question: With DAPK3, O43293 as the substance, how does the cross-linked residues (LUZP1) read?
Answer: K400 - K150 and K425 - K187

Question: Which cross-linked residues (MYH10) does the source give for MYH9, P35579 here?
Answer: K1330 - K1345 and K1492 - K1596 and K1669 - K1925 and K1775 - K1809 and K1775 - K1874 and K1867 - K1724 and K1918 - K1869

Question: For ATP1A1, P05023, which cross-linked residues (NDRG1) is on record?
Answer: K444 - K280 and K458 - K280

Question: With CALR, P27797 as the substance, how does the cross-linked residues (PDIA3) read?
Answer: K153 - K104 and K360 - K466

Question: HSPA8, P11142 was tested. Which cross-linked residues (RAN) did it give?
Answer: K159 - K28 and K159 - K37

Question: Which cross-linked residues (RTCB) does the source give for DDX1, Q92499 here?
Answer: K636 - K366 and K693 - K206 and K702 - K206 and K702 - K366

Question: How did the cross-linked residues (RTCB) turn out when RTRAF, Q9Y224 was run?
Answer: K176 - K245 and K185 - K492

Question: SEPTIN2, Q15019 was tested. Which cross-linked residues (SEPTIN11) did it give?
Answer: K190 - K65 and K249 - K190

Question: Which cross-linked residues (SPTAN1) does the source give for SPTBN1, Q01082 here?
Answer: K292 - K2404 and K659 - K1911 and K997 - K1646 and K1249 - K1369 and K2054 - K441

Question: With SRP14, P37108 as the substance, how does the cross-linked residues (SRP9) read?
Answer: K55 - K76 and K74 - K76 and K78 - K76

Question: UPRT, Q96BW1 was tested. Which cross-linked residues (UCKL1) did it give?
Answer: K111 - K328 and K169 - K343

Question: For PFDN6, O15212, which cross-linked residues (VBP1) is on record?
Answer: K66 - K114 and K122 - K189

Question: How did the cross-linked residues (VPS16) turn out when VPS33A, Q96AX1 was run?
Answer: K126 - K554 and K423 - K668

Question: With VPS11, Q9H270 as the substance, how does the cross-linked residues (VPS18) read?
Answer: K811 - K412 and K909 - K481

Question: How did the cross-linked residues (VTI1A) turn out when STX16, O14662 was run?
Answer: K185 - K35 and K287 - K176 and K297 - K176

Question: And the cross-linked residues (YKT6)?
Answer: K185 - K103 and K281 - K186

Question: Which cross-linked residues (VTI1A) does the source give for NAPA, P54920 here?
Answer: K285 - K35 and K285 - K89

Question: For YWHAB, P31946, which cross-linked residues (YWHAE) is on record?
Answer: K70 - K12 and K77 - K12

Question: For YWHAG, P61981, which cross-linked residues (YWHAE) is on record?
Answer: K69 - K12 and K78 - K12

Question: For YWHAE, P62258, which cross-linked residues (YWHAZ) is on record?
Answer: K12 - K68 and K12 - K75 and K29 - K85

Question: How did the cross-linked residues (YWHAZ) turn out when YWHAQ, P27348 was run?
Answer: K9 - K85 and K85 - K9
